# The list shows a part of the results.
# B1: Gal-9-hFc (Mus musculus), O08573-2 (protein)
# chain: MALFSAQSPYINPIIPFTGPIQGGLQEGLQVTLQGTTKSFAQRFVVNFQNSFNGNDIAFHFNPRFEEGGYVVCNTKQNGQWGPEERKMQMPFQKGMPFELCFLVQRSEFKVMVNKKFFVQYQHRVPYHLVDTIAVSGCLKLSFITFQTQNFRPAHQAPMAQTTIHMVHSTPGQMFSTPGIPPVVYPTPAYTIPFYTPIPNGLYPSKSIMISGNVLPDATRFHINLRCGGDIAFHLNPRFNENAVVRNTQINNSWGQEERSLLGRMPFSRGQSFSVWIICEGHCFKVAVNGQHMCEYYHRLKNLQDINTLEVAGDIQLTHVQT
# What was measured:
# Assay in all cases: glycan array binding signal (z-score within array); higher = stronger binding
# Details in all cases: glycan notation: IUPAC condensed, linker removed
# [1] = target: Fuc(a1-2)Gal
# Procedure, shortened: (§1)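 From the Consortium for Functional Glycomics database, 3228 arrays were curated, keeping only those whose protein sequence was available. Binding is given as a within-array Z-score averaged across arrays sharing a protein sequence and across linkers. Negative Z-scores can be read as non-binding.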
# [2] = target: Fuc(a1-2)Gal(b1-3)GalNAc
# Procedure, shortened: as §1
# [3] = target: Fuc(a1-2)Gal(b1-3)GalNAc(a1-3)[Fuc(a1-2)]Gal(b1-4)Glc
# Procedure, shortened: as §1
# [4] = target: Fuc(a1-2)Gal(b1-3)GalNAc(a1-3)[Fuc(a1-2)]Gal(b1-4)GlcNAc
# Procedure, shortened: as §1
# [5] = target: Fuc(a1-2)Gal(b1-3)GalNAc(b1-3)Gal
# Procedure, shortened: as §1
# [6] = target: Fuc(a1-2)Gal(b1-3)GalNAc(b1-3)Gal(a1-4)Gal(b1-4)Glc
# Procedure, shortened: as §1
# [7] = target: Fuc(a1-2)Gal(b1-3)GalNAc(b1-4)[Neu5Ac(a2-3)]Gal(b1-4)Glc
# Procedure, shortened: as §1
# [8] = target: Fuc(a1-2)Gal(b1-3)GlcNAc
# Procedure, shortened: as §1
# [9] = target: Fuc(a1-2)Gal(b1-3)GlcNAc(b1-2)Man(a1-3)[Fuc(a1-2)Gal(b1-3)GlcNAc(b1-2)Man(a1-6)]Man(b1-4)GlcNAc(b1-4)GlcNAc
# Procedure, shortened: as §1
# [10] = target: Fuc(a1-2)Gal(b1-3)GlcNAc(b1-2)Man(a1-3)[Fuc(a1-2)Gal(b1-3)GlcNAc(b1-2)Man(a1-6)]Man(b1-4)GlcNAc(b1-4)[Fuc(a1-6)]GlcNAc
# Procedure, shortened: as §1
# [11] = target: Fuc(a1-2)Gal(b1-3)GlcNAc(b1-3)Gal(b1-4)Glc
# Procedure, shortened: as §1
# [12] = target: Fuc(a1-2)Gal(b1-3)GlcNAc(b1-3)GalNAc
# Procedure, shortened: as §1
# [13] = target: Fuc(a1-2)Gal(b1-3)GlcNAc(b1-3)[Fuc(a1-2)Gal(b1-3)GlcNAc(b1-6)]GalNAc
# Procedure, shortened: as §1
# [14] = target: Fuc(a1-2)Gal(b1-3)GlcNAc(b1-3)[Gal(b1-4)GlcNAc(b1-6)]Gal(b1-4)Glc
# Procedure, shortened: as §1
# [15] = target: Fuc(a1-2)Gal(b1-3)GlcNAc(b1-3)[Neu5Ac(a2-6)Gal(b1-4)GlcNAc(b1-6)]Gal(b1-4)Glc
# Procedure, shortened: as §1
# [16] = target: Fuc(a1-2)Gal(b1-3)GlcNAc6S
# Procedure, shortened: as §1
# [17] = target: Fuc(a1-2)Gal(b1-3)[Fuc(a1-4)]GlcNAc
# Procedure, shortened: as §1
# [18] = target: Fuc(a1-2)Gal(b1-3)[Fuc(a1-4)]GlcNAc(b1-2)Man(a1-3)[Fuc(a1-2)Gal(b1-3)[Fuc(a1-4)]GlcNAc(b1-2)Man(a1-3)]Man(b1-4)GlcNAc(b1-4)GlcNAc
# Procedure, shortened: as §1
# [19] = target: Fuc(a1-2)Gal(b1-3)[Fuc(a1-4)]GlcNAc(b1-2)Man(a1-3)[Fuc(a1-2)Gal(b1-3)[Fuc(a1-4)]GlcNAc(b1-2)Man(a1-6)]Man(b1-4)GlcNAc(b1-4)[Fuc(a1-6)]GlcNAc(b1-4)[Fuc(a1-6)]GlcNAc
# Procedure, shortened: as §1
# [20] = target: Fuc(a1-2)Gal(b1-3)[Fuc(a1-4)]GlcNAc(b1-3)[Fuc(a1-3)[Gal(b1-4)]GlcNAc(b1-6)]Gal(b1-4)Glc
# Procedure, shortened: as §1
# [21] = target: Fuc(a1-2)Gal(b1-3)[Fuc(a1-4)]GlcNAc(b1-3)[Gal(b1-4)GlcNAc(b1-6)]Gal(b1-4)Glc
# Procedure, shortened: as §1
# [22] = target: Fuc(a1-2)Gal(b1-4)Fuc(a1-3)]GlcNAc(b1-2)Man(a1-3)[Fuc(a1-2)Gal(b1-4)[Fuc(a1-3)]GlcNAc(b1-2)Man(a1-6)]Man(b1-4)GlcNAc(b1-4)GlcNAc
# Procedure, shortened: as §1
# [23] = target: Fuc(a1-2)Gal(b1-4)Glc
# Procedure, shortened: as §1
# [24] = target: Fuc(a1-2)Gal(b1-4)Glc6S
# Procedure, shortened: as §1
# [25] = target: Fuc(a1-2)Gal(b1-4)GlcNAc
# Procedure, shortened: as §1
# [26] = target: Fuc(a1-2)Gal(b1-4)GlcNAc(b1-2)Man
# Procedure, shortened: as §1
# [27] = target: Fuc(a1-2)Gal(b1-4)GlcNAc(b1-2)Man(a1-3)[Fuc(a1-2)Gal(b1-4)GlcNAc(b1-2)Man(a1-6)]Man(b1-4)GlcNAc(b1-4)GlcNAc
# Procedure, shortened: as §1
# [28] = target: Fuc(a1-2)Gal(b1-4)GlcNAc(b1-2)Man(a1-3)[Fuc(a1-2)Gal(b1-4)GlcNAc(b1-2)Man(a1-6)]Man(b1-4)GlcNAc(b1-4)[Fuc(a1-6)]GlcNAc
# Procedure, shortened: as §1
# [29] = target: Fuc(a1-2)Gal(b1-4)GlcNAc(b1-2)[Fuc(a1-2)Gal(b1-4)GlcNAc(b1-4)]Man(a1-3)[Fuc(a1-2)Gal(b1-4)GlcNAc(b1-2)Man(a1-6)]Man(b1-4)GlcNAc(b1-4)GlcNAc
# Procedure, shortened: as §1
# [30] = target: Fuc(a1-2)Gal(b1-4)GlcNAc(b1-3)Gal(b1-4)GlcNAc
# Procedure, shortened: as §1
# [31] = target: Fuc(a1-2)Gal(b1-4)GlcNAc(b1-3)Gal(b1-4)GlcNAc(b1-2)Man(a1-3)[Fuc(a1-2)Gal(b1-4)GlcNAc(b1-3)Gal(b1-4)GlcNAc(b1-2)Man(a1-6)]Man(b1-4)GlcNAc(b1-4)GlcNAc
# Procedure, shortened: as §1
# [32] = target: Fuc(a1-2)Gal(b1-4)GlcNAc(b1-3)Gal(b1-4)GlcNAc(b1-3)Gal(b1-4)GlcNAc
# Procedure, shortened: as §1
# [33] = target: Fuc(a1-2)Gal(b1-4)GlcNAc(b1-3)GalNAc
# Procedure, shortened: as §1
# [34] = target: Fuc(a1-2)Gal(b1-4)GlcNAc(b1-3)[Fuc(a1-2)Gal(b1-4)GlcNAc(b1-6)]GalNAc
# Procedure, shortened: as §1
# [35] = target: Fuc(a1-2)Gal(b1-4)GlcNAc(b1-3)[Fuc(a1-3)[Gal(b1-4)]GlcNAc(b1-6)]Gal(b1-4)Glc
# Procedure, shortened: as §1
# [36] = target: Fuc(a1-2)Gal(b1-4)GlcNAc(b1-6)GalNAc
# Procedure, shortened: as §1
# [37] = target: Fuc(a1-2)Gal(b1-4)GlcNAc6S
# Procedure, shortened: as §1
binder,measurement,setting,value
B1,glycan array binding signal (z-score),[1],-0.248
same,glycan array binding signal (z-score),[2],-0.533
same,glycan array binding signal (z-score),[3],-0.211
same,glycan array binding signal (z-score),[4],-0.235
same,glycan array binding signal (z-score),[5],0.235
same,glycan array binding signal (z-score),[6],-0.29
same,glycan array binding signal (z-score),[7],-0.358
same,glycan array binding signal (z-score),[8],-0.292
same,glycan array binding signal (z-score),[9],0.676
same,glycan array binding signal (z-score),[10],-0.361
same,glycan array binding signal (z-score),[11],-0.324
same,glycan array binding signal (z-score),[12],-0.5
same,glycan array binding signal (z-score),[13],-0.102
same,glycan array binding signal (z-score),[14],-0.497
same,glycan array binding signal (z-score),[15],-0.581
same,glycan array binding signal (z-score),[16],-0.369
same,glycan array binding signal (z-score),[17],-0.543
same,glycan array binding signal (z-score),[18],1.02
same,glycan array binding signal (z-score),[19],-0.397
same,glycan array binding signal (z-score),[20],-0.609
same,glycan array binding signal (z-score),[21],-0.581
same,glycan array binding signal (z-score),[22],0.109
same,glycan array binding signal (z-score),[23],-0.131
same,glycan array binding signal (z-score),[24],0.123
same,glycan array binding signal (z-score),[25],-0.448
same,glycan array binding signal (z-score),[26],-0.05
same,glycan array binding signal (z-score),[27],0.415
same,glycan array binding signal (z-score),[28],0.215
same,glycan array binding signal (z-score),[29],-0.005
same,glycan array binding signal (z-score),[30],-0.528
same,glycan array binding signal (z-score),[31],-0.349
same,glycan array binding signal (z-score),[32],-0.425
same,glycan array binding signal (z-score),[33],-0.339
same,glycan array binding signal (z-score),[34],-0.126
same,glycan array binding signal (z-score),[35],-0.013
same,glycan array binding signal (z-score),[36],-0.217
same,glycan array binding signal (z-score),[37],-0.362

# Source: the supplement of paper PMC8728848
